Residue numbers refer to the chain shown, from its start. Names may count otherwise.
T1: huBCMA on H929 cells (Homo sapiens, UniProt Q02223, N81S)
T1 construct: endogenous in cells; host or cells: H929 human multiple myeloma cell line
T1 sequence (Q02223 1-184 N81S): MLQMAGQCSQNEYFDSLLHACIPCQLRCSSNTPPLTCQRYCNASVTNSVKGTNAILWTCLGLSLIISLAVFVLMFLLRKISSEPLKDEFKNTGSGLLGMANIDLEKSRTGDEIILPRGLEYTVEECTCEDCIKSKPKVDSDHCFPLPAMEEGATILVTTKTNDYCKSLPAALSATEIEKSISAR

B1: 2A1 covariance 3: 2A1_F44V + C107T; heavy chain SEQ ID NO:291, light chain 288 (antibody)
heavy: EVQLVESGGGLVKPGRSLRLSCTASGFTFGDYALSWVRQAPGKGLEWVGVSRSKAYGGTTDYAASVKGRFTISRDDSKSFAYLQMNSLKTEDTAVYYCTSSGYSSGWTPFDYWGQGTLVTVSS[omitted - human IgG1 constant region]
light: QSVLTQPPSASGTPGQRVTISCSGSSSNIGSNTVNWYQQLPGTAPKLLIFNYHQRPSGVPDRFSGSKSGSSASLAISGLQSEDEADYYCAAWDDSLNGWVFGGGTELTVLGQPKAAPSVTLFPPSSEELQANKATLVCLISDFYPGAVTVAWKADSSPVKAGVETTTPSKQSNNKYAASSYLSLTPEQWKSHRSYSCQVTHEGSTVEKTVAPTECS
B2: 2A1 covariance 8: 2A1_F44V + F88T + C107T; heavy chain SEQ ID NO:296, light chain 288 (antibody)
heavy: B1 heavy with F80T
light: B1 light
B3: 2A1 covariance 9: 2A1_F44V + C107A; heavy chain SEQ ID NO:297, light chain 288 (antibody)
heavy: B1 heavy with T99A
light: B1 light
B4: 2A1 covariance 1: 2A1 mutein C107T; heavy chain SEQ ID NO:289, light chain SEQ ID NO:288 (antibody)
heavy: B1 heavy with V37F
light: B1 light
B5: 2A1 S108R: 2A1 mutein S108R (antibody)
heavy: B1 heavy with V37F, T99C, S100R
light: B1 light
B6: 2A1CV4: 2A1-HC: R17G, T24A, C107A; heavy chain SEQ ID NO:309, light chain SEQ ID NO:312 (antibody)
heavy: B1 heavy with R16G, T23A, V37F, T99A
light: B1 light with E106K

Tests used:
huBCMA on H929 cells = biological target: T1, huBCMA on H929 cells; experiment: FACS binding to native BCMA on H929 myeloma cells; conditions: flow cytometry; muteins relative to parental 2A1
Procedure: Approximately 10 to 40×10^6 of H929 myeloma cells were resuspended in a staining solution (2% goat serum, 1% rabbit serum, 0.02% azide in PBS) and aliquoted into round-bottom, 96-well plate (Corning Incorp., Acton, Mass.) as per the experiment design. The cells were incubated at 4 degrees celsius for 30 minutes to block non-specific sites. The antibodies were titrated into the staining solution. The cells were rinsed in a rinse solution (PBS+0.02% azide) by resuspending the cells in 200 ul/well. The cells were centrifuged at 1500 rpm at 4 degrees celsius for 7 minutes. The rinse solution was removed and the rinse step was repeated. […] The huIgG1 negative control's secondary reagent was a biotinylated anti-huIgG (Jackson Labs, Bar Harbor, Me., Cat. 109-065-098), followed by a streptavidin-phycoerythrin (SA-PE) conjugate (BD Pharmingen, San Diego, Calif., Cat. 554061). […] The cells/antibodies were rinsed as described above to remove excess/unbound antibody. After the last rinse, the cells were resuspended in 200 ul of rinse solution with a drop of staining solution added to keep the cells from aggregating. Samples were read at 532 nm wavelength on FACS.
To further characterize the engineered mutein antibodies, they were tested for the ability to bind BCMA by FACS analysis. The antibodies were tested for binding to BCMA endogenously-expressed on a variety of cells, including the H929 cell line, which were developed from B-lymphocytes from a myeloma/plasmacytoma patient (ATCC, Manassa, Va.) using standard FACs techniques. Reagents were prepared using standard methods: 500 mL FACs buffer (PBS, 1% BSA, 5 mM EDTA, 0.02% NaN3), and FACs Block Buffer (30 mL FACs buffer, 5% Normal Rabbit Serum, 5% Normal Human Serum). Approximately 10 to 50×10^6 H929 cells were aliquoted in a standard 96 well plate (preferably deep-well, such as those provide by Corning). The cell volumes were adjusted to bring all volumes up to 1 mL/tube w/FACs buffer. The cells were centrifuged at 4° C. for 10 minutes at 1200 rpm. The supernatants were removed and the cell pellets were resuspended in 100 uL of FACs Block Buffer per tube. The cells were incubated for 30 to 60 minutes on ice. The BCMA antibodies were prepared by making premixes of 1:3 serial dilutions of antibodies in FACS Block Buffer starting at 10 ug/ml antibody (for example) in a final volume of 100 ul. The blocked cells were centrifuged at 4° C. for 10 minutes at 1200 rpm. The supernatants were removed and the cell pellets were resuspended in 100 uL of FACs Block Buffer containing the BCMA antibodies. The cells were incubated for 60 minutes on ice. After incubation, 1 mL of cold FACs Block Buffer was added to each tube. The cells were centrifuged at 4° C. for 10 minutes at 1200 rpm. The supernatants were removed and the cell pellets were resuspended in 100 uL of FACs Block Buffer containing biotinylated anti-huIgG (Jackson Labs, Bar Harbor, Me., Cat. 109-065-098) at a 1:100 dilution in FACs Block Buffer. The cells were incubated for 45 minutes on ice. After incubation, 1 mL of cold FACs Block Buffer was added to each tube. The cells were centrifuged at 4° C. for 10 minutes at 1200 rpm. […] The supernatants were removed and the cell pellets were resuspended in 0.2 mL/tube 4% paraformaldehyde in PBS and analyzed by flow cytometry

[1] = Differential Scanning calorimetry (DSC) thermostability; format: physicochemical; conditions: full-length antibody, Table 11
Text: Differential Scanning calorimetry (DSC) was used to compare the thermostability of parent and engineered antibodies. DSC is a thermodynamical tool for direct assessment of the heat energy uptake, which occurs in a sample within a regulated increase or decrease in temperature. DSC is commonly employed to assess the thermal and conformational stability of a protein. The melting temperature of a protein, or of individual domains, can be obtained from the DSC profile, and if the reaction is reversible the thermodynamic parameters of the unfolding can be determined. A protein is considered more thermostable when the Tm (transition temperature) is higher. When thermostability data are compared to other bioanalytical methods, like size exclusion chromatography (SEC), it has been observed that a correlation between greater thermostability (higher Tm) and decreased aggregation. […]
DSC was carried out using a MicroCal™ VP-Capillary DSC system (GE Healthcare, Piscataway, N.J.) equipped with an auto-sampler. The temperature differences between the reference and sample cells are continuously measured, and calibrated to power units. […] The solution reference and protein samples were measured in a 135 μL cell from 20 to 110° C. at a heating rate of 60° C./hour. […] Heat capacity during protein melting was calculated by normalizing over protein concentration.

[2] = Isoelectric point of whole antibody; format: physicochemical
[3] = tested on: CD138+ plasma cells of multiple myeloma patient samples; experiment: pHrodo internalization assay on multiple myeloma patient samples; format: cell-based, human; conditions: pHrodo label, 4 hours at 37° C.
Procedure: Samples were acquired from commercial sources (AllCells, Conversant, Proteogenex) to acquire approximately 1×10^6 plasma cells per sample. Individual multiple myeloma (MM) samples were thawed gently at room temp (RT). The thawed cells were added dropwise into 4 ml of 50% FBS (fetal bovine serum) RPMI buffer at RT. 3 ml of 10% FBS RPMI was added to the cell suspension. The cell suspension was gently inverted to mix and centrifuged at low speed to pellet cells. The media was aspirated and the cell pellet was resuspended in 1% FBS PBS (Phosphate Buffered Saline). The cells were manually counted on a hemocytometer. The cells were added to 10 FBS RPMI and allowed to recover in an incubator for 1 hr at 37° C. with 5% CO2. Cell viability was assessed as follows. Cells from primary MM and H929 cell lines were plated at 200,000 cells per well in a 96 well plate with fresh 10% FBS RPMI buffer with 5 wells per sample. The plate was centrifuged to pellet cells and media aspirated and resuspended in PBS three times. Cells were stained with Violet Live/Dead cell stain (Molecular Probes-L34955) per manufacturer protocol and incubated at RT in the dark for 30 minutes. […] Internalization/Immunophenotype (IP) was assessed as follows. […] Cells from each well were assessed using a LSRII (BD Bioscience) and FCS files generated. […]

Molecule	binding to BCMA on H929 cells (huBCMA on H929 cells)	also measured
B1	reduced binding	–
B2	reduced binding	–
B3	reduced binding	–
B4	comparable binding	–
B5	comparable binding	–
B6	–	Tm [1]: 75 °C; pI (Whole) [2]: 8.39; internalization in multiple myeloma patient samples [3]: effectively internalized in all 29 multiple myeloma patient samples
